One experiment relates to HSkMC. As to the kind of experiment: cytotoxicity call (relative viability < 0.9). As to conditions: 10 µM.
The next experiment concerns HepG2. Put plainly: cytotoxicity call (relative viability < 0.9). As to conditions: 10 µM.
The next experiment deals with S. aureus RN4220. As to the kind of experiment: growth inhibition call (relative growth <= 0.2). As to conditions: 50 µM.

The other results are listed elsewhere or left out.

For the molecule `C[C@H]1CCCCO[C@H](CN(C)C)[C@@H](C)CN([C@@H](C)CO)C(=O)c2cc(NC(=O)Nc3cccc4ccccc34)ccc2O1`, the cytotoxicity call in the experiment with HSkMC and in the experiment with HepG2 was “inactive” in each case. Also, in the experiment with S. aureus RN4220, the growth inhibition call was “inactive”.

Turning to `Cc1noc(C)c1S(=O)(=O)N(C)C[C@H]1OCCCC[C@H](C)Oc2ccc(NC(=O)Nc3ccc(C(F)(F)F)cc3)cc2C(=O)N([C@H](C)CO)C[C@H]1C`, the cytotoxicity call with HSkMC and in the experiment with HepG2 was “inactive” each time. In addition, the growth inhibition call with S. aureus RN4220 was “inactive”.

For the molecule `C[C@@H]1CN([C@@H](C)CO)C(=O)c2cc(C#CC3(O)CCCC3)cnc2O[C@@H]1CN(C)C(=O)Cc1cccnc1`, the cytotoxicity call in the experiment with HSkMC and in the experiment on HepG2 was “inactive” in each case. In addition, the growth inhibition call with S. aureus RN4220 was “inactive”.

For the molecule `CC(=O)n1cc([C@H]2C=C(C(=O)NCc3ccccc3)O[C@@H](OCc3ccc(CO)cc3)C2)c2ccccc21`, the cytotoxicity call with HSkMC and in the experiment with HepG2 was “inactive” throughout. In addition, the growth inhibition call in the experiment on S. aureus RN4220 was “inactive”.

On to `C[C@H](CO)N1C[C@H](C)[C@@H](CN(C)S(C)(=O)=O)Oc2ccc(NC(=O)Nc3ccccc3)cc2C1=O`, for which the cytotoxicity call with HSkMC and with HepG2 was “inactive” throughout. Also, in the experiment on S. aureus RN4220, the growth inhibition call was “inactive”.

Turning to `C[C@H]1CN([C@@H](C)CO)C(=O)Cc2cc(NS(C)(=O)=O)ccc2O[C@H]1CN(C)S(=O)(=O)c1cn(C)cn1`, the cytotoxicity call with HSkMC and in the experiment on HepG2 was “inactive” each time. Further, the growth inhibition call in the experiment on S. aureus RN4220 was “inactive”.

With `Cc1cc(C(=O)Nc2cccc3c2O[C@H](CN(C)C(=O)NC2CCCCC2)[C@@H](C)CN([C@@H](C)CO)C3=O)n(C)n1`, the cytotoxicity call in the experiment with HSkMC and with HepG2 was “inactive” throughout. The growth inhibition call with S. aureus RN4220 is “inactive”.

Take `COc1ccc(NC(=O)N(C)C[C@H]2Oc3c(NC(=O)CCCCCC(=O)Nc4ccccc4N)cccc3C(=O)N([C@H](C)CO)C[C@H]2C)cc1`: the cytotoxicity call in the experiment on HSkMC and in the experiment on HepG2 was “inactive” in each case. Moreover, the growth inhibition call in the experiment with S. aureus RN4220 was “inactive”.

On to `C[C@@H]1CCCCO[C@H](CN(C)C(=O)Nc2ccc(F)cc2)[C@@H](C)CN([C@H](C)CO)C(=O)c2cc(NC(=O)NC3CCCCC3)ccc2O1`, for which the cytotoxicity call in the experiment with HSkMC and with HepG2 was “inactive” in each case. In the experiment on S. aureus RN4220, the growth inhibition call is “inactive”.

As for `O=C1/C(=C/c2cccs2)CCC/C1=C\c1cccs1`, the cytotoxicity call with HSkMC and in the experiment with HepG2 was “inactive” throughout. Besides, the growth inhibition call in the experiment on S. aureus RN4220 was “inactive”.

For the molecule `CCCNC(=O)C[C@H]1CC[C@H]2[C@@H](COc3ccc(NC(=O)Nc4ccc(C#N)cc4)cc3C(=O)N2C)O1`, the cytotoxicity call in the experiment with HSkMC and in the experiment with HepG2 was “inactive” throughout. In the experiment on S. aureus RN4220, the growth inhibition call is “inactive”.

On to `O=C(O)c1c[nH]ccc1=O`, for which the cytotoxicity call in the experiment with HSkMC and in the experiment with HepG2 was “inactive” each time. Further, in the experiment with S. aureus RN4220, the growth inhibition call is “inactive”.

For the molecule `O=C(NCC(F)(F)F)[C@@H]1[C@@H](CO)[C@@H]2Cn3c(cccc3=O)[C@H]1N2C(=O)C1CCC1`, the cytotoxicity call in the experiment on HSkMC and in the experiment with HepG2 was “inactive” each time. Besides, the growth inhibition call in the experiment on S. aureus RN4220 was “inactive”.

Take `Cc1cc2nc3c(=O)[nH]c(=O)nc-3n(CC(O)C(O)C(O)COP(=O)([O-])O)c2cc1C.[Na+]` (centres undefined): the cytotoxicity call in the experiment on HSkMC is “inactive”. Besides, in the experiment with HepG2, the cytotoxicity call was “active”. In the experiment with S. aureus RN4220, the growth inhibition call was “inactive”.

As to `Cc1noc(C)c1NC(=O)N(C)C[C@H]1Oc2ccc(NC(=O)Nc3cccc4ccccc34)cc2C(=O)N([C@H](C)CO)C[C@H]1C`, the cytotoxicity call with HSkMC and in the experiment on HepG2 was “inactive” in each case. Besides, the growth inhibition call with S. aureus RN4220 is “inactive”.

`CC1(C(=O)[O-])CCC2(C)CCC3(C)C(=CC(=O)C4C5(C)CCC(OC(=O)CCC(=O)[O-])C(C)(C)C5CCC43C)C2C1.[Na+].[Na+]` (centres undefined): the cytotoxicity call in the experiment on HSkMC and in the experiment on HepG2 was “inactive” each time. For the same molecule, the growth inhibition call in the experiment with S. aureus RN4220 is “inactive”.

For the molecule `NCC[C@H]1CC[C@@H](NC(=O)c2ccccc2F)[C@@H](CO)O1`, the cytotoxicity call with HSkMC and in the experiment with HepG2 was “inactive” each time. In the experiment with S. aureus RN4220, the growth inhibition call is “inactive”.

`COc1ccc(S(=O)(=O)Nc2cccc3c2O[C@H](CN(C)C(=O)NC(C)C)[C@@H](C)CN([C@H](C)CO)C3=O)cc1`: the cytotoxicity call in the experiment on HSkMC and in the experiment with HepG2 was “inactive” throughout. Also, in the experiment on S. aureus RN4220, the growth inhibition call is “inactive”.

Regarding `O=C(C[C@H]1CC[C@@H]2[C@H](COC[C@@H](O)CN2C(=O)C2CC2)O1)NCc1ccncc1`, the cytotoxicity call with HSkMC and in the experiment with HepG2 was “inactive” in each case. Moreover, the growth inhibition call in the experiment on S. aureus RN4220 is “inactive”.

`COc1ccc(N2C[C@@H](O)Cn3c2nc2c3c(=O)[nH]c(=O)n2C)cc1`: the cytotoxicity call in the experiment on HSkMC and in the experiment with HepG2 was “inactive” throughout. Also, the growth inhibition call in the experiment with S. aureus RN4220 is “inactive”.

On to `CO[C@H]1CN(C)C(=O)c2cc(NS(=O)(=O)CC(F)(F)F)ccc2OC[C@H](C)N(C(=O)NC(C)C)C[C@H]1C`, for which the cytotoxicity call in the experiment on HSkMC and in the experiment with HepG2 was “inactive” throughout. The growth inhibition call in the experiment with S. aureus RN4220 was “inactive”.

On to `COc1cccc(NC(=O)N2C[C@H](O)COC[C@H]3O[C@@H](CC(=O)NCc4ccccc4F)CC[C@@H]32)c1`, for which the cytotoxicity call with HSkMC and with HepG2 was “inactive” each time. The growth inhibition call in the experiment on S. aureus RN4220 was “inactive”.

`O=C(O)[C@@H]1CC(=O)N(Cc2cccnc2)C1`: the cytotoxicity call in the experiment with HSkMC and in the experiment with HepG2 was “inactive” in each case. In addition, the growth inhibition call in the experiment with S. aureus RN4220 is “inactive”.

With `O=C(C[C@@H]1C=C[C@@H](NC(=O)C2CCC2)[C@@H](CO)O1)NCCCN1CCOCC1`, the cytotoxicity call in the experiment with HSkMC and with HepG2 was “inactive” each time. Besides, the growth inhibition call in the experiment on S. aureus RN4220 was “inactive”.

Turning to `COc1ccccc1C#Cc1ccc2c(c1)O[C@@H](CN(C)Cc1ccncc1)[C@@H](C)CN([C@H](C)CO)S2(=O)=O`, the cytotoxicity call in the experiment on HSkMC and in the experiment on HepG2 was “inactive” in each case. In addition, the growth inhibition call in the experiment on S. aureus RN4220 is “inactive”.

With `Cc1noc(C)c1S(=O)(=O)Nc1ccc2c(c1)C(=O)N([C@H](C)CO)C[C@H](C)[C@H](CN(C)C(=O)Nc1ccccc1)OCCCC[C@H](C)O2`, the cytotoxicity call with HSkMC and with HepG2 was “inactive” throughout. In addition, in the experiment on S. aureus RN4220, the growth inhibition call is “inactive”.

As for `C[C@H]1CN([C@@H](C)CO)C(=O)c2cc(NC(=O)CCN3CCOCC3)ccc2O[C@H]1CN(C)S(=O)(=O)c1ccc(Cl)cc1`, the cytotoxicity call in the experiment on HSkMC and in the experiment with HepG2 was “inactive” in each case. Further, the growth inhibition call in the experiment on S. aureus RN4220 is “inactive”.

As for `COc1ccccc1NC(=O)C[C@H]1CC[C@H]2[C@@H](COc3ccc(NS(C)(=O)=O)cc3C(=O)N2C)O1`, the cytotoxicity call in the experiment on HSkMC (human skeletal muscle cells) and with HepG2 was “inactive” in each case. In the experiment on S. aureus RN4220, the growth inhibition call was “inactive”.

The record behind these values is the antibiotic and cytotoxicity screens of Wong et al. (2023).
